{"source": "paper PMC6919601", "about": "“Identification of Plasmodium dipeptidyl aminopeptidase allosteric inhibitors by high throughput screening” (PLoS ONE, 2019)", "note": "Several values for one entry are separate records, joined by “and”; a condition that tells them apart may be missing. Equal entries are not always repeated. The campaign covered roughly 110,000 compounds. About 230 (0.21%) showed an effect of 50% or more. The list shows a part of the results.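 Note: 30 min substrate incubation versus DMSO and 10 µM JCP410 controls.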"}
{"molecular_target": "DPAP1 (Plasmodium falciparum, UniProt Q8IIJ9)", "sequence (Q8IIJ9 whole entry, looked up)": "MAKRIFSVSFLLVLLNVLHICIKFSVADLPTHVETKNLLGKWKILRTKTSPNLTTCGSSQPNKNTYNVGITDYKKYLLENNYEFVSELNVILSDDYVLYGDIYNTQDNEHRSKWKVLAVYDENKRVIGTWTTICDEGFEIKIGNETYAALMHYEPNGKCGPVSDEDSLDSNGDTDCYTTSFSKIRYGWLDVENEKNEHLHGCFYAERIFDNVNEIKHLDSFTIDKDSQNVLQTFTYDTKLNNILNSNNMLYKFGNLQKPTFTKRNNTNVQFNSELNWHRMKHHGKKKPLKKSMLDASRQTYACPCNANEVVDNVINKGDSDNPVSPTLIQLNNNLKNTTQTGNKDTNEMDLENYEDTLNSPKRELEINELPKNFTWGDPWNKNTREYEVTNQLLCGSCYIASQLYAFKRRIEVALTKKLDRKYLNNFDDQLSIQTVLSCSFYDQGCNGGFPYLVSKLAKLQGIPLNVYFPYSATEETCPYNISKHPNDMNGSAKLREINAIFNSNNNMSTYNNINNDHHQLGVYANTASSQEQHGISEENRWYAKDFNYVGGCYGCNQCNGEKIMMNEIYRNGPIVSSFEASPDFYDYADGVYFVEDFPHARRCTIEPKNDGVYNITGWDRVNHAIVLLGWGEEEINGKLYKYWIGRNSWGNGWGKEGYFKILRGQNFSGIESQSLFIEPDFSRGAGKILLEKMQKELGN", "assay": "primary screen, percent inhibition; read by cleavage of a fluorogenic dipeptide substrate; higher = more effect of the substance", "set-up": "species or system P. falciparum D10 trophozoite lysates; single well"}
{"compound": "COc1cccc(CN(C)CCN(C)C)c1OC", "% Inhibition @ 10 uM": "5.03%"}
{"compound": "COc1ccc(C(=O)N(C(C)C)C(C)C)c(OC)c1", "% Inhibition @ 10 uM": "-0.318%"}
{"compound": "CCOc1ccccc1NC(=O)Cc1ccc(OC)cc1", "% Inhibition @ 10 uM": "3.13%"}
{"compound": "Cc1[nH]nc2c1C(c1ccccn1)N(C)C2=O", "note": "(centres unmarked)", "% Inhibition @ 10 uM": "3.88%"}
{"compound": "CCCC12CN3CN(C1)CC(CCC)(C3)C2=O", "% Inhibition @ 10 uM": "-2.86%"}
{"compound": "COc1cc(C2NC(=O)NC(C)=C2C(=O)OCC(C)C)ccc1OCc1ccccc1", "note": "(centres unmarked)", "% Inhibition @ 10 uM": "6.94%"}
{"compound": "O=[N+]([O-])c1ccc(S(=O)(=O)NCCc2ccccc2)cc1", "% Inhibition @ 10 uM": "17.9%"}
{"compound": "COc1cccc(C(=O)Nc2ccc(F)c(F)c2)c1", "% Inhibition @ 10 uM": "-5.82%"}
{"compound": "Cc1nc2ccccc2c2c1C(=O)N(Cc1ccccc1Cl)C2=O", "% Inhibition @ 10 uM": "-6.5%"}
{"compound": "CCc1sc(NC2=NS(=O)(=O)c3ccccc32)nc1-c1ccccc1", "% Inhibition @ 10 uM": "2.31%"}
{"compound": "COc1ccc(CN2CNc3c(c(C)nn3-c3ccccc3)C2)cc1", "% Inhibition @ 10 uM": "-1.08%"}
{"compound": "O=C(CCNS(=O)(=O)c1ccc2[nH]c(-c3ccccc3)nc2c1)NCc1ccc(F)cc1", "% Inhibition @ 10 uM": "-0.232%"}
{"compound": "CC1(C(=O)O)COC(c2ccccc2)OC1", "note": "(centres unmarked)", "% Inhibition @ 10 uM": "-3.04%"}
{"compound": "CCOC(=O)C1CCCN(C/C=C/c2ccc(N(C)C)cc2)C1", "note": "(centres unmarked)", "% Inhibition @ 10 uM": "-1.21%"}
{"compound": "CC1(C)Cc2nc3sc4c(N5CCNCC5)ncnc4c3cc2CS1", "% Inhibition @ 10 uM": "3.29%"}
{"compound": "Cc1ccc(NC(=O)c2ccc(Cl)c([N+](=O)[O-])c2)cc1C", "% Inhibition @ 10 uM": "5.43%"}
{"compound": "Cc1ccc(C(=O)O)cc1S(=O)(=O)N1CCC(C)CC1", "% Inhibition @ 10 uM": "-3.27%"}
{"compound": "O=C(CN1CCN(Cc2ccccc2)C1=O)NCCN1CCOCC1", "% Inhibition @ 10 uM": "-0.984%"}
{"compound": "COc1ccc(C(CC(=O)O)NC(=O)CSc2nnc(N)s2)cc1", "note": "(centres unmarked)", "% Inhibition @ 10 uM": "-0.834%"}
{"compound": "Cc1ccc(C(=O)NCCNS(=O)(=O)c2ccccc2)cc1", "% Inhibition @ 10 uM": "0.408%"}
{"compound": "COc1ccc(-c2c(C#N)c(N)nc(OC)c2C#N)cc1OC", "% Inhibition @ 10 uM": "-1.22%"}
{"compound": "Cn1cccc1Cc1nnc(SCC(N)=O)n1C", "% Inhibition @ 10 uM": "3.6%"}
{"compound": "CC(=O)c1ccc(NCN2C(=O)CCC2=O)cc1", "% Inhibition @ 10 uM": "4.88%"}
{"compound": "COC(=O)C1=C(C)N(Cc2ccc(OC)cc2)C(=O)/C1=C\\c1ccco1", "% Inhibition @ 10 uM": "-9.18%"}
{"compound": "COc1ccc(OC)c(C(=O)c2ccccc2)c1", "% Inhibition @ 10 uM": "3.61%"}
{"compound": "O=C(c1ccccc1[N+](=O)[O-])N1CCN(c2ccc([N+](=O)[O-])cc2)CC1", "% Inhibition @ 10 uM": "4.57%"}
{"compound": "c1ccc(CC(NCc2ccncc2)c2ccccc2)cc1", "note": "(centres unmarked)", "% Inhibition @ 10 uM": "-5.16%"}
{"compound": "Cc1nc(Nc2nc3ccccc3o2)nc(C)c1C", "% Inhibition @ 10 uM": "2.36% and 3.24%"}
{"compound": "COc1ccc(-n2c(C)cc(/C=C3/NC(=O)N(c4ccccc4)C3=O)c2C)cc1", "% Inhibition @ 10 uM": "-7.3%"}
{"compound": "COc1ccc(C(=O)Nc2ccc(NC(=O)c3ccco3)c(OC)c2)cc1Br", "% Inhibition @ 10 uM": "-1.28%"}
{"compound": "CSc1nc(N)c2c3c(sc2n1)CN(C)CC3", "% Inhibition @ 10 uM": "3.32%"}
{"compound": "Cc1cc(Cl)ccc1OCC(=O)NCCC1=CCCCC1", "% Inhibition @ 10 uM": "2.13%"}
{"compound": "Cc1ccccc1NC1CC(C)Nc2c(C)cccc21", "note": "(centres unmarked)", "% Inhibition @ 10 uM": "7.09%"}
{"compound": "O=C(NCc1cccs1)c1cc2c(O)nc3ccccc3c2s1", "% Inhibition @ 10 uM": "6.08%"}
{"compound": "CCOc1ccc(NC(=O)COc2c(C)cccc2C)cc1", "% Inhibition @ 10 uM": "-1.26%"}
{"compound": "O=C1C2(c3ccccc3)CN(CCCO)CC1(c1ccccc1)CN(CCCO)C2", "% Inhibition @ 10 uM": "-2.9%"}
{"compound": "Cc1cccc(-c2nc(CSc3nnc(C)n4c3cc3oc(C)cc34)c(C)o2)c1", "% Inhibition @ 10 uM": "22.6%"}
{"compound": "Cc1nc(NC(=O)C2C3CCC(C3)C2C(=O)O)sc1-c1ccccc1", "note": "(centres unmarked)", "% Inhibition @ 10 uM": "3.32%"}
{"compound": "Cc1ccc(C(=O)NC(=O)CSc2nncn2C)cc1", "% Inhibition @ 10 uM": "-1.24%"}
{"compound": "Cc1cc(/C=C2/NC(=O)N(Cc3ccccc3F)C2=O)c(C)n1C(C)C", "% Inhibition @ 10 uM": "14.2%"}
{"compound": "O=C(NCc1ccco1)/C(=C\\c1ccco1)NC(=O)c1ccsc1", "% Inhibition @ 10 uM": "2.69%"}
{"compound": "CCOC(=O)C1=C(CN2CCC(C(N)=O)CC2)NC(=O)NC1c1ccc(OC(C)C)cc1", "note": "(centres unmarked)", "% Inhibition @ 10 uM": "-1.03%"}
{"compound": "Cc1nn(Cc2c(F)cccc2Cl)c(C)c1NC(=O)c1nn(C)cc1Br", "% Inhibition @ 10 uM": "-0.545%"}
{"compound": "CCOc1ccc(-c2cc(C(=O)OC)[nH]n2)cc1", "% Inhibition @ 10 uM": "-5.15%"}
{"compound": "Cc1cc(NC(=O)C2CC2c2ccccc2)no1", "note": "(centres unmarked)", "% Inhibition @ 10 uM": "21.1%"}
{"compound": "Cc1nn(-c2ccccc2)c(-n2cccc2)c1C(=O)N1CCC(C(=O)NC(C)c2ccccc2)CC1", "note": "(centres unmarked)", "% Inhibition @ 10 uM": "0.137%"}
{"compound": "COc1ccc(S(=O)(=O)N2CCN(c3ccccc3)CC2)cc1OC", "% Inhibition @ 10 uM": "0.162%"}
{"compound": "CC[C@H](NC(=O)C(CC(C)(C)C)OC(=O)N1CCOCC1)C(=O)c1nc2ccccc2o1", "note": "(some centres unmarked)", "% Inhibition @ 10 uM": "-3.48%"}
{"compound": "COc1ccc(C2=CC(c3ccc(C)cc3)n3ncnc3N2)cc1", "note": "(centres unmarked)", "% Inhibition @ 10 uM": "6.77%"}
{"compound": "COc1ccc(/C=C/c2nc(C#N)c(NC3CC3)o2)cc1OC", "% Inhibition @ 10 uM": "2.54%"}
